Some of the results follow. At the low end of the ranking the order means little.

In the assay the target is T1, GST-Rok-C97-191 (UniProt O34857).
T1 sequence: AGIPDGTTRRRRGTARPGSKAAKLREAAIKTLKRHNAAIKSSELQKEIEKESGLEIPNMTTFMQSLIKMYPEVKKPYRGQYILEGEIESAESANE
Put plainly: protein binding microarray.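 Note: rank score from −0.5 (least bound) to 0.5 (best bound).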 To be noted: Rok is a gene silencer of Bacillus subtilis; high values mean tight binding; most listed sequences are background and not binding sites; double strand, one strand shown.
Take ACAGGACA: the binding signal is -0.101 E-score. Take AAATTTGG: the binding signal was 0.0224 E-score. Next, CAAAGGTA: 0.0763 E-score; AAGCCCAG: -0.195 E-score; AAACAAAT: -0.0125 E-score. Next, GCGGGTTA: -0.151 E-score; GATTATCC: 0.077 E-score.

In turn, AGTTAGCC showed a binding signal of 0.152 E-score. Regarding ATGCTCGC, the binding signal was -0.134 E-score. Next, TGGTCGAA: -0.227 E-score.

AGGCTATA gave a binding signal of -0.0506 E-score.

With GATCGTCA, the binding signal was -0.00638 E-score. Next, GCCGAATA: 0.0948 E-score; GATGACTA: 0.111 E-score; ACAGGGCA: -0.232 E-score. Next, AATGACGC: -0.115 E-score; CGTGTAGA: -0.0913 E-score; ACTGTCTG: -0.0894 E-score. Under ACTAACCC stands -0.0437 E-score.

Regarding CCAGGCGG, the binding signal is -0.328 E-score. Under CCAGTCAC stands -0.146 E-score.

Regarding CTGTTACA, the binding signal stood at 0.136 E-score. Next, AAGGGCCT: -0.385 E-score; AATAGCGG: 0.105 E-score.

Sequence CTCGGATC showed a binding signal of -0.06 E-score. Under TAGTCCCA stands 0.00854 E-score; under ATGATCAA, 0.0844 E-score. For the sequence ATCTACTA, the binding signal was determined as 0.456 E-score. Under ACTCACCT stands 0.117 E-score; under AGTCCAGG, -0.193 E-score; under TAGTTATA, 0.39 E-score. Under TCCCCTCA stands -0.186 E-score. Under ATCGCTAA stands 0.0943 E-score. ACCGTACT had a binding signal of 0.132 E-score. Under ATGTTTAG stands 0.0663 E-score; under AAATGTGC, 0.163 E-score. Under AAGCGAGA stands -0.187 E-score; under AGATTACT, 0.254 E-score; under ACCTGCCT, -0.195 E-score. Next, ACACATTG: 0.0785 E-score; GATCGCCA: -0.0223 E-score; CCAGGATC: -0.0112 E-score.

AGGTGGCC returned a binding signal of -0.324 E-score.

The sequence AACTGGCG gave a binding signal of -0.0955 E-score. Sequence AGGCTCCG yielded a binding signal of -0.212 E-score. Under ATTCGCAA stands -0.000958 E-score. Under ACTCCGTC stands -0.111 E-score; under CTAATTAA, 0.275 E-score; under CTCTAAGC, -0.1 E-score. Next, CATTCGCG: -0.218 E-score. For the sequence GATAACGC, the binding signal is 0.138 E-score. Under ACGTACGC stands -0.0326 E-score. Next, AATGGAAA: 0.0342 E-score; CATGCGCG: -0.21 E-score.

Take AAAGGGAC: the binding signal is -0.117 E-score. Under AAGGGTGG stands -0.149 E-score.

For CATACCAC, the binding signal worked out at 0.126 E-score. Under GCCAATCA stands -0.2 E-score; under AAAGTAGG, 0.262 E-score; under CCTTCTGC, -0.174 E-score. Take CGGGACGC: the binding signal is -0.365 E-score. Next, ATATCTAG: 0.284 E-score; ACGGGAAA: 0.132 E-score; GATGACCA: -0.0618 E-score. Under ATTCACGG stands -0.0815 E-score; under AAAGCCCA, -0.0474 E-score. Next, ATAGGAAT: 0.265 E-score; GTGGCGGA: -0.18 E-score; CCCACGCA: -0.185 E-score.

As for GCGAGAGA, the binding signal was -0.185 E-score. Under CTGTACCC stands -0.124 E-score. As for AGGCCGCC, the binding signal was -0.304 E-score.

As for ACCGACAG, the binding signal is -0.113 E-score.

For ACAGTTTG, the binding signal was 0.0529 E-score. Under GACCACCA stands -0.264 E-score; under CGCATTAG, -0.0446 E-score. Next, ACCTGGTG: -0.193 E-score; GTGACAAC: -0.063 E-score. Sequence AAGCGTAG showed a binding signal of 0.111 E-score. Next, CGTCGTAG: 0.0335 E-score. In turn, CAGAGCTG returned a binding signal of -0.154 E-score. Under ATCGTTCC stands 0.0996 E-score; under ACTAACAT, 0.0145 E-score. Next, TCCTCGAA: -0.235 E-score. Next, TACGCTCA: -0.14 E-score; CTCGCAGC: -0.151 E-score; CCGTCACA: -0.0667 E-score. As to ATGAGCAA, the binding signal worked out at 0.104 E-score. Under ATAGTCCA stands -0.0947 E-score. Under ATCTTGGC stands -0.0932 E-score; under ATAGGGCC, -0.155 E-score. Next, GGAACCAA: -0.147 E-score. Sequence CCGTCACC gave a binding signal of -0.232 E-score. In the case of GTTGTATA, the binding signal was 0.351 E-score. The sequence GAACGTTA registered a binding signal of 0.178 E-score. ACACTAAA came in with a binding signal of 0.0728 E-score. Next, ATACCTCG: 0.221 E-score; GTCACCCA: -0.181 E-score; AAGCCGTC: -0.253 E-score.

Sequence ATTAGAGC registered a binding signal of 0.129 E-score. In turn, ATGGGCCA yielded a binding signal of -0.196 E-score. Next, GGTCCGAC: -0.143 E-score; GACTGTAC: 0.159 E-score; AGACTTAA: -0.0467 E-score. Under TCACACAA stands 0.129 E-score. Next, AAGTCGCG: -0.113 E-score.

In the case of CGTATTGC, the binding signal was 0.0959 E-score.

The sequence ATTCTGGC came in with a binding signal of -0.0553 E-score.

The sequence AGAAATGG showed a binding signal of 0.153 E-score. GAAAAGAA returned a binding signal of 0.0697 E-score.

Source of the values: paper PMC6212790.
